The values below come from PubChem BioAssay AID488969 (Vanderbilt High Throughput Screening Facility, 2010).

The structures appear in SMILES notation. Whole data set: some 110,000 compounds, median “z-score” near -0.1, cut for the highest 2% near 2. This is one part of the list. The source made the active and inactive calls.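 Rule for the calls: active = z-score in the third read window above 3 or below -3; inactive = the rest.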

This assay concerns the target Metabotropic glutamate receptor 8 (Rattus norvegicus) (UniProt P70579). Briefly: rat mGluR8 modulators via GIRK flux, primary screen, cell-based, thallium flux, HTS (AID 488969). Particulars: HEK293 rat mGluR8, GIRK (G protein-gated inwardly rectifying potassium channel) thallium flux, FluoZin2; at 10 µM; stronger effect = higher value; submaximal glutamate (EC20) added with thallium.
UniProt P70579, sequence (P70579 whole entry, looked up): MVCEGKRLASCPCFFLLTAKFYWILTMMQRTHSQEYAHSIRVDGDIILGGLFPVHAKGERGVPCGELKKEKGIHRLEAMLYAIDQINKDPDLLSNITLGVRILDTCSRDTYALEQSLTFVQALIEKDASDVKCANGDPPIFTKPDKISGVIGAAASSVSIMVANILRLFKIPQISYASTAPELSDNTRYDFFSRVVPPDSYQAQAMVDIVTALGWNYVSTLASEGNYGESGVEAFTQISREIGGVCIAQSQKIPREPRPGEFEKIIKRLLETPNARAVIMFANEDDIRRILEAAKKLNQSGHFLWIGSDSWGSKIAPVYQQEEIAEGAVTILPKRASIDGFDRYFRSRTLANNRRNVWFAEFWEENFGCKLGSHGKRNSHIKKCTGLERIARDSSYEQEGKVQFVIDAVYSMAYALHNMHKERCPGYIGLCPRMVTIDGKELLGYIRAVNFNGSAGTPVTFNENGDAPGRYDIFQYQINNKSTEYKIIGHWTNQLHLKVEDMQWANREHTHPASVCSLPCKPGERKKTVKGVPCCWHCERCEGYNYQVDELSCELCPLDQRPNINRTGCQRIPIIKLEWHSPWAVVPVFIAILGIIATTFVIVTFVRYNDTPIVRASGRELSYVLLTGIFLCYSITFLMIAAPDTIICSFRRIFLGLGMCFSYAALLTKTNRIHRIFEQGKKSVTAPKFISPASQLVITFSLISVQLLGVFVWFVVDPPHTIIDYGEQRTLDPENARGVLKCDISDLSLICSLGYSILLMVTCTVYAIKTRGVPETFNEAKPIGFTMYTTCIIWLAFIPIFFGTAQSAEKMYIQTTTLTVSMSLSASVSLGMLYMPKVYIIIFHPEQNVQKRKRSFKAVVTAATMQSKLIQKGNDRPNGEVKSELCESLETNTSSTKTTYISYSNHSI
For the compound `COc1ccc(CCNC(=O)CNS(=O)(=O)c2ccc(Br)s2)cc1OC`, the z-score was -0.0435.
The compound `O=C(/C=C/c1ccc(OC(F)F)cc1)OCC(=O)N1CCN(C(=O)c2ccco2)CC1` had a z-score of 0.082.
Compound `CCc1ccc(NC(=O)N(CCCOC(C)C)C2CCN(C(C)=O)CC2)cc1` came in with a z-score of 0.807.
For `O=C1CC(c2ccco2)CC(O)=C1C=Nc1ccc(Br)cc1` (stereo not drawn), the z-score is -0.573.
Consider `Cc1csc(NC(=O)C(NS(=O)(=O)c2ccc(Br)s2)c2ccccc2)n1` (stereo not drawn), for which the z-score was -0.0835.
The value for `COC(=O)c1cn(-c2ccccc2)c(C)c1C(=O)OC` was -0.11; that for `Cc1ccc2nc3n(c(=O)c2c1)CCCCC3` was 1.65.
As to `CCOC(=O)CSCc1cn2cc(Cl)ccc2n1`, the z-score is -0.142.
`Cc1ccc(NS(=O)(=O)c2ccc(N3C(=O)CCC3=O)cc2)cc1` yielded a z-score of 0.0614.
As for `Cn1c2ccccc2c2c(C(=O)NCC3CCCO3)cn(C3CCCC3)c(=O)c21` (stereo not drawn), the z-score was -0.721.
`CCn1c(CSc2nc3ccccc3s2)nnc1SCC(=O)c1ccc(O)c(O)c1` showed a z-score of 0.00479.
On to `CCn1cc(Cl)c(C(=O)N2N=C3/C(=C/c4cccs4)CCCC3C2c2cccs2)n1` (stereo not drawn), for which the z-score was -0.241.
Turning to `COc1ccc(/C=C2\N=C3CCCCCN3C2=O)cc1OC`, the z-score is -0.565.
`Cc1ccc(CNC(=O)Cn2ccc3ccccc3c2=O)o1` gave a z-score of 0.188.
For `CC(C)CC(NC(=O)c1ccccc1)C(=O)OCC(=O)Nc1ccc(Br)cn1` (stereo not drawn), the z-score was -0.0797.
Regarding `O=C(O)[C@H](Cc1ccccc1)N1C(=O)c2ccncc2C1=O`, the z-score amounted to 0.139.
The value for `N#C/C(=C\c1ccccc1Cl)C(=O)NC(=O)Oc1ccccc1` was -0.549; that for `O=C(O)CCCNS(=O)(=O)c1ccccc1` was -0.277.
As for `CCOC(=O)C1(C)C=C(Nc2ccc(O)cc2)C(=O)N1c1ccc(O)cc1` (stereo not drawn), the z-score amounted to 0.153.
For `CC(=O)c1cc2c(cc1NC(=O)CSc1nc3ccccc3o1)OCO2` the value was -0.795.
The value for `COc1ccccc1N(CC(O)CN(c1ccccc1)S(C)(=O)=O)S(=O)(=O)c1ccccc1` (stereo not drawn) was -0.251; that for `COc1cc(/C=N/Nc2ncc(C(F)(F)F)cc2Cl)cc(OC)c1OC` was -0.231; that for `CN1CCC(NC(=O)c2cccs2)CC1` was -0.179.
Take `Cc1ccc(NC(=O)C/C(N)=N/O)cc1C`: the z-score is -0.153.
As for `COc1ccc(C2/C(=C(/O)c3ccccc3)C(=O)C(=O)N2CC(C)O)c(OC)c1` (stereo not drawn), the z-score stood at 0.612.
As for `CC1CCCCN1S(=O)(=O)c1cccc2cccnc12` (stereo not drawn), the z-score came to 0.804.
Turning to `CC(C)OC(=O)/C(=C/c1cccnc1)NC(=O)c1ccccc1`, the z-score is active: 3.22.
Regarding `CS/C(=N/S(=O)(=O)c1ccc(C)cc1)c1ccccc1`, the z-score was -0.501.
In the case of `CC1CN=C(c2cccn2Cc2ccc(F)cc2Cl)O1` (stereo not drawn), the z-score worked out at 0.261.
As for `CC(C)(C)SCCNC(=O)CN(c1ccc(F)cc1)S(C)(=O)=O`, the z-score was -0.273.
As for `Cc1ccc(NC(=S)N2CCN(C)CC2)c(C)c1`, the z-score was -0.125.
Regarding `CCCC(=O)Nc1sc2c(c1C(=O)OC)C(C(=O)OC)CC2` (stereo not drawn), the z-score is -0.0731.
As for `COc1cc(NC(=O)CSc2ccc3c(c2)OCCO3)cc(OC)c1OC`, the z-score is -0.0209.
On to `C/C=C(\C)CN1CCN(c2cc(C)ccc2C)CC1`, for which the z-score was -0.121.
As for `COc1ccc(NC(=S)NCC2CCCO2)c(OC)c1` (stereo not drawn), the z-score is -0.211.
Take `COc1cccc(NC(=O)COc2ccc(C)cc2)c1`: the z-score is active: 4.04.
The value for `O=C(C1CCCN(S(=O)(=O)c2cccs2)C1)N1CCN(C2CCCCC2)CC1` (stereo not drawn) was -0.311; that for `C=CCSc1nnc2c(n1)OC=Nc1ccccc1-2` was -0.345; that for `Cn1c(=O)c2c(nc(NC(Cc3ccccc3)C(=O)O)n2Cc2ccccc2)n(C)c1=O` (stereo not drawn) was 0.199.
Regarding `Cc1cc(C)cc(NC(=O)c2ccccc2CC[N+](=O)[O-])c1`, the z-score was -0.944.
Turning to `C=CCn1c(SCc2ccc(C#N)cc2)nnc1-c1ccc(C)cc1`, the z-score is -0.503.
`CCCCCn1c(=O)[nH]c2cc(C(=O)NCCN3CCOCC3)ccc2c1=O`: the z-score stood at 0.542.
Take `OC(COc1ccccc1)CN1CCOCC1` (stereo not drawn): the z-score was -0.127.
For `O=C(CSc1nc(Nc2ccccc2)nc(N2CCOCC2)n1)N1CCc2ccccc21` the value was 0.159; for `Cc1cc(C)nc(-n2cc(C(=O)c3cc(F)ccc3O)cn2)n1`, 0.0338; for `CCc1nc(-c2ccc(OC)c(OC)c2)cc2cc(OC)c(OC)cc12`, -0.0908.
The value for `Cc1cc(=O)[nH]c(N/N=C/c2c(O)n(-c3ccccc3)c(=O)c3ccccc23)n1` was 0.0384.
For `CNc1nc2c(c(=O)[nH]c(=O)n2C)n1CCOC`, the z-score was 1.64.
On to `CCOc1ccc(NC(=O)N(CCCN2CCOCC2)Cc2cccnc2)cc1`, for which the z-score came to 1.17.
As to `O=c1c2ccccc2nc(SCc2cc([N+](=O)[O-])cc3c2OCOC3)n1-c1ccccc1`, the z-score is -0.0105.
For `CC(C)CC(=O)Nc1nnc(SCC(=O)NCc2ccco2)s1` the value was -0.153.
In the case of `COc1ccc(C)cc1NC(=O)C1CCN(S(=O)(=O)c2cccc3cccnc23)CC1`, the z-score is -0.688.
Turning to `COc1ccc(CCC(=O)N2CCCSC2=Nc2ccc(C(C)=O)cc2)cc1`, the z-score was -0.331.
For the compound `O=C(COC(=O)c1cc(S(=O)(=O)NCc2ccccc2)ccc1O)NCc1ccccc1`, the z-score is -0.115.
The value for `Cc1ccc(S(=O)(=O)Oc2ccc(C(c3c(C)[nH][nH]c3=O)c3c(C)[nH][nH]c3=O)cc2)cc1` was 0.0509; that for `CCCCn1c(=N)n(CC(=O)C(C)(C)C)c2ccccc21` was -0.41; that for `O=c1c(O)c(-c2ccc3c(c2)OCO3)oc2ccccc12` was -0.981.
Take `C=CCn1c(SCn2nnc3ccccc3c2=O)nnc1-c1ccc(Br)cc1`: the z-score amounted to 0.482.
In the case of `Cc1c(Cl)cccc1NC(=O)CCC(=O)N/N=C/c1ccc[nH]1`, the z-score is -0.389.
For `CS(=O)(=O)N1N=C(c2ccco2)CC1c1ccc(Cl)cc1` (stereo not drawn) the value was -0.15; for `Cc1ccc(S(=O)(=O)N2C(=O)CCC2C(=O)Nc2ccc3c(c2)OCCO3)cc1` (stereo not drawn), -0.271.
As for `Cc1ccc(NC(=O)Cc2nc(CSc3nnc(-c4ccc5c(c4)OCO5)o3)cs2)cc1`, the z-score is -1.48.
In the case of `Cc1cc(=O)oc(C)c1C(=O)O`, the z-score is -0.065.
As for `c1ccc(-c2noc(-c3ccncc3)n2)nc1`, the z-score is -0.0501.
Compound `CCC(C)c1ccc(NC(=O)CSc2nncn2N)cc1` (stereo not drawn) gave a z-score of 0.0816.
Take `COc1ccccc1CN(C(=O)Cc1cccs1)C(C(=O)NC1CCCC1)c1ccncc1` (stereo not drawn): the z-score is -0.243.
`CCCCn1c(-c2nn(C)c(C)c2Cl)n[nH]c1=S`: the z-score came to 0.951.
`Cc1ccc2cc(C)c3nnc(SCC(=O)Nc4nc5c(s4)CCCC5)n3c2c1`: the z-score is -0.93.
Turning to `CCCCCCCn1c(=N)n(CC(=O)c2ccco2)c2ccccc21`, the z-score is active: 4.65.
For `CN1C(=O)CC(N2CCN(Cc3ccc(Cl)cc3)CC2)C1=O` (stereo not drawn), the z-score is -0.141.
As to `CCOP(=O)(OCC)C(NC(=O)Nc1ccc(Cl)c(Cl)c1)C(N)=O` (stereo not drawn), the z-score is -0.0318.
`Cc1ccc(N2C(=O)CC(Sc3ncn[nH]3)C2=O)cc1C` (stereo not drawn): the z-score was -0.22.
As to `CCCn1nc(C(=O)Nc2cc(C(=O)OC)ccc2C)c2ccccc2c1=O`, the z-score was 0.256.
As for `CCNC(=S)NCc1ccc2c(c1)OCO2`, the z-score is -0.0745.
In the case of `CCCCc1nc(NCC2CCCO2)c(C#N)c2c1COC(C)(C)C2` (stereo not drawn), the z-score is -0.551.
Compound `CCS(=O)(=O)Nc1ccc(C(=O)OC)cc1` displayed a z-score of 0.0196.
On to `O=c1c(Cc2ccccc2)c(O)nc2n1CCCS2`, for which the z-score is -0.34.
`C=CCn1c(C(CCC(C)C)CC(C)(C)O)n[nH]c1=S` (stereo not drawn): the z-score was determined as 0.183.
For `Cc1ccc(C)n1-c1ccccc1N`, the z-score was -0.208.
As for `Cc1nn(Cc2cccc(C(=O)NC(C)c3ccc(C(C)(C)C)cc3)c2)c(C)c1[N+](=O)[O-]` (stereo not drawn), the z-score is -0.0799.
With `COc1cc(CC(=O)OCC(=O)Nc2ccc3c(c2)OCCO3)cc(OC)c1OC`, the z-score was -0.207.
Turning to `O=c1[nH][nH]c(C(F)(F)F)c1C=Nc1ccccc1`, the z-score was 0.126.
In turn, `CCn1cc(C(=O)NCc2ccco2)c2cc(OC)c(OC)cc2c1=O` yielded a z-score of 0.183.
The value for `CCOC(=O)c1cc2occc2n1CC(=O)NCCOC` was 0.141.
For the compound `O=C(Nc1nc2ccc(Cl)cc2s1)C1CCCO1` (stereo not drawn), the z-score was -0.864.
As to `CCN(CC)S(=O)(=O)c1ccc2nnn(OCC(=O)Nc3cccc(C#N)c3)c2c1`, the z-score is -0.793.
For `Cc1cc(C)nc(N2CCN(CC(=O)NCc3ccccc3)CC2)n1` the value was -0.195; for `COc1ccc(OCCSc2nnc(-c3ccccc3)n2N)cc1`, 0.144.
As for `CCN(C(=O)Cc1cccs1)c1nnc(-c2cc(OC)c(OC)c(OC)c2)s1`, the z-score is -0.44.
Turning to `CC(=O)O/N=C(/c1nonc1N)N1CCN(c2ccc([N+](=O)[O-])cc2Cl)CC1`, the z-score is -0.222.
The value for `COc1ccc(N(CC(=O)Nc2cc(C)ccc2OC)S(=O)(=O)c2c(C)noc2C)cc1` was -0.432; that for `Cn1c(SCc2n[nH]c(=S)o2)nnc1-c1ccccc1` was -0.0285; that for `CC1(C)Cc2cccc(OCC(O)CNCc3ccccn3)c2O1` (stereo not drawn) was 0.739.
On to `CC(C)NC(=O)CSc1nnc(COc2ccccc2Cl)o1`, for which the z-score is -0.386.
Take `CCC(=O)c1ccc(OCC(O)CN2CCOCC2)cc1` (stereo not drawn): the z-score came out at 0.0417.
`O=C(NCCSCc1ccccc1)c1ccc(F)cc1` came in with a z-score of 0.0217.
On to `O=C(NCc1ccc2c(c1)OCO2)c1cccnc1`, for which the z-score is -0.202.
Take `COC(=O)/C(=C1\Oc2ccc(C(C)(C)C)cc2S1)C(F)(F)F`: the z-score came out at 0.161.
For `O=C(Cc1cccs1)NCc1ccc2c(c1)OCO2`, the z-score was -0.488.
`Cc1ccc(Cn2c(CN(C)Cc3ccccc3)nc3c2c(=O)n(C)c(=O)n3C)cc1`: the z-score was -1.01.
Turning to `O=c1c2ccccc2nc2n1CCCCC2`, the z-score came out at 0.0912.
The value for `CC(=O)OC1COC(n2ccc3ccccc32)C(OC(C)=O)C1OC(C)=O` (stereo not drawn) was -0.05.
Consider `Cc1nn(Cc2c(F)c(F)c(F)c(F)c2F)c(C)c1NC(=O)c1ccc(COc2cc(Cl)ccc2Cl)cc1`, for which the z-score was -0.32.
On to `CCNC(=S)Nc1cc(C)ccn1`, for which the z-score worked out at 0.1.
As to `c1ccc(Cc2cc(-c3ccccc3)on2)cc1`, the z-score stood at 0.0389.
As for `O=C(COC(=O)Cn1c(C(F)(F)F)nc2ccccc21)Nc1ccc2c(c1)OCCO2`, the z-score was -0.513.
With `CCn1c(=N)n(CC(O)c2ccco2)c2ccccc21` (stereo not drawn), the z-score came out at 0.425.
Take `C=CC[n+]1c(-c2ccc(OC)cc2)csc1NNC(=O)Nc1ccccc1`: the z-score came out at 0.444.
The value for `O=C(Nc1ccccc1Cl)c1ccc(COc2ccc3c(c2)CCC3)cc1` was 0.941; that for `CCN(Cc1nc2ccccc2c(=O)[nH]1)Cc1nc2cc(OC)c(OC)cc2c(=O)[nH]1` was -0.0675.
The value for `CSc1ccccc1N=CC1=C(O)CC(C)(C)CC1=O` was -0.437; that for `CCCN1CCCc2cc(CN(CCCN3CCOCC3)C(=O)Nc3ccc(OCC)cc3)ccc21` was 0.000776.
For `Cn1c(=O)c2[nH]c(-c3ccccc3)c(O)c2n(C)c1=O` the value was -1.4.
